From the supplement of paper PMC6089552
The whole screen tested about 3,200 compounds, of which about 300 (9.4%) showed activity. This is a selection; strong and weak results do not stand in their true shares.

Tested on: A673/TR/shEF
Experiment: cell viability (LOESS-normalised, relative to median of negative controls) (log2 ratio); higher = more viable cells (less compound effect), active = hit call of the paper (over 3 MAD below the median)
Details: treatment time: 72 h
Method in brief: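 For three days, A673/TR/shEF Ewing sarcoma cells in 384-well plates (1,500 per well) were treated with library compounds at two or more concentrations or with DMSO controls, after doxycycline had been added or withheld 24 h beforehand to induce EWS-FLI1 shRNA knockdown. Viability was read by CellTiter-Glo luminescence on an Envision reader. The data were LOESS-corrected per plate, divided by the median of negative controls and log2-transformed.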

[1] = 0.25 µM, library screen: screen2, EWS-FLI1 expression: high (no doxycycline)
[2] = 0.25 µM, library screen: screen2, EWS-FLI1 expression: low (doxycycline-induced shRNA knockdown)
[3] = 2.5 µM, library screen: screen2, EWS-FLI1 expression: high (no doxycycline)
[4] = 2.5 µM, library screen: screen2, EWS-FLI1 expression: low (doxycycline-induced shRNA knockdown)
[5] = 2.8 µM, library screen: screen3, EWS-FLI1 expression: high (no doxycycline)
[6] = 2.8 µM, library screen: screen3, EWS-FLI1 expression: low (doxycycline-induced shRNA knockdown)
[7] = 8.3 µM, library screen: screen3, EWS-FLI1 expression: high (no doxycycline)
[8] = 8.3 µM, library screen: screen3, EWS-FLI1 expression: low (doxycycline-induced shRNA knockdown)
[9] = 25 µM, library screen: screen3, EWS-FLI1 expression: high (no doxycycline)
[10] = 25 µM, library screen: screen3, EWS-FLI1 expression: low (doxycycline-induced shRNA knockdown)
[11] = 0.25 µM, library screen: screen1, EWS-FLI1 expression: high (no doxycycline)
[12] = 0.25 µM, library screen: screen1, EWS-FLI1 expression: low (doxycycline-induced shRNA knockdown)
[13] = 2.5 µM, library screen: screen1, EWS-FLI1 expression: high (no doxycycline)
[14] = 2.5 µM, library screen: screen1, EWS-FLI1 expression: low (doxycycline-induced shRNA knockdown)
[15] = 0.103 µM, library screen: screen3, EWS-FLI1 expression: high (no doxycycline)
[16] = 0.103 µM, library screen: screen3, EWS-FLI1 expression: low (doxycycline-induced shRNA knockdown)
[17] = 0.308 µM, library screen: screen3, EWS-FLI1 expression: high (no doxycycline)
[18] = 0.308 µM, library screen: screen3, EWS-FLI1 expression: low (doxycycline-induced shRNA knockdown)
[19] = 0.926 µM, library screen: screen3, EWS-FLI1 expression: high (no doxycycline)
[20] = 0.926 µM, library screen: screen3, EWS-FLI1 expression: low (doxycycline-induced shRNA knockdown)

Measured: cell viability (log2)

Nc1ccc(CCNc2ncnc3c2ncn3C2OC(CO)C(O)C2O)cc1 (centres undefined)
inactive: [1] 0.0842 | [2] 0.129 | [3] 0.0506 | [4] 0.076

COc1ccc(-c2ccc3c(N4CCOCC4)nc(N4C[C@@H](C)O[C@@H](C)C4)nc3n2)cc1CO
active: [5] -0.379 | [6] -0.377 | [7] -0.748 | [8] -0.617 | [9] -1.51 | [10] -1.39

COC1(C)CCC2OC2(C)CCC2C1CC2(C)C (centres undefined)
inactive: [11] 0.0896 | [12] -0.07 | [13] 0.0457 | [14] 0.0229

OC[C@H]1O[C@@H](n2cnc3c(Nc4ccccc4)ncnc32)[C@H](O)[C@@H]1O
inactive: [1] 0.163 | [2] 0.111 | [3] 0.125 | [4] 0.0991

OC(CN1CCN(c2cccc(Cl)c2)CC1)C(c1ccccc1)c1ccccc1 (centres undefined)
inactive: [1] 0.185 | [2] 0.112 | [3] 0.133 | [4] 0.0821

CC1=C(/C=C/C(C)=C/C=C/C(C)=C\C(=O)O)C(C)(C)CCC1
inactive: [15] -0.0999 | [16] 0.0846 | [11] 0.069 | [12] 0.0494 | [1] 0.237 | [2] 0.122 | [17] -0.0483 | [18] 0.00696 | [19] -0.0359 | [20] 0.0254 | [13] 0.0686 | [14] 0.173 | [3] 0.194 | [4] 0.208 | [5] -0.0341 | [6] -0.000497 | [7] -0.0809 | [8] 0.0528 | [9] -0.0656 | [10] 0.0248

CC/C(=C(/CC)c1ccc(O)cc1)c1ccc(O)cc1
inactive: [11] 0.0846 | [12] 0.153 | [13] 0.119 | [14] 0.226

CSc1ccc2c(c1)N(CCC1CCCCN1C)c1ccccc1S2 (centres undefined)
inactive: [11] 0.17 | [12] 0.187 | [1] 0.17 | [2] 0.0177 | [13] 0.192 | [14] 0.257 | [3] 0.0792 | [4] 0.126

CC(C)(Sc1ccc(CCN(CCCCC2CCCCC2)C(=O)NC2CCCCC2)cc1)C(=O)O
inactive: [1] 0.167 | [2] 0.0987 | [3] 0.123 | [4] 0.113

NC1C=CC=C(C(=O)O)C1 (centres undefined)
inactive: [1] 0.256 | [2] 0.133 | [3] 0.0681 | [4] 0.121

NCCNS(=O)(=O)c1cccc2cnccc12
active: [13] -0.101

Cc1cc(-c2ccccc2)nnc1NCCN1CCOCC1
inactive: [11] 0.136 | [12] 0.0526 | [13] 0.176 | [14] -0.0281

NC(N)=Nc1nc(CSCC/C(N)=N/S(N)(=O)=O)cs1
inactive: [11] 0.105 | [12] 0.028 | [1] 0.192 | [2] 0.0337 | [13] 0.142 | [14] 0.00616 | [3] 0.132 | [4] 0.0149

CCOC(=O)c1sc(C)c2c(=O)n(C3CCCCC3)cnc12
inactive: [11] 0.0769 | [12] 0.0757 | [13] 0.067 | [14] -0.0142

CCN(CC)CCNc1ccc(CO)c2sc3ccccc3c(=O)c12
inactive: [11] 0.107 | [12] 0.129 | [13] 0.0662 | [14] 0.206

O=C(COc1ccc(Cl)cc1)N1CCN(Cc2ccc3c(c2)OCO3)CC1
inactive: [11] 0.0573 | [12] 0.0223 | [13] 0.0872 | [14] 0.144

CN(C)c1ccc(C=C2SC(=S)N(c3ccc(F)cc3)C2=O)cc1
inactive: [11] 0.0645 | [12] 0.154 | [13] 0.09 | [14] 0.192

CN(Cc1cnc2nc(N)nc(N)c2n1)c1ccc(C(=O)N[C@@H](CCC(=O)O)C(=O)O)cc1
inactive: 0.025 µM, library screen: screen2, EWS-FLI1 expression: high (no doxycycline) 0.0134 | 0.025 µM, library screen: screen2, EWS-FLI1 expression: low (doxycycline-induced shRNA knockdown) 0.0597 | [15] -0.0597 | [16] 0.0506 | [2] 0.0894 | [18] 0.0568 | [20] 0.0108 | [4] 0.0271 | [6] 0.0377 | [8] 0.0521 | 25 µM, library screen: screen2, EWS-FLI1 expression: low (doxycycline-induced shRNA knockdown) 0.0873 | [10] 0.0291
active: [1] -0.406 | [17] -0.512 | [19] -0.53 | [3] -0.754 | [5] -0.711 | [7] -0.751 | 25 µM, library screen: screen2, EWS-FLI1 expression: high (no doxycycline) -0.743 | [9] -0.797

Cc1ccsc1/C=C/C1=NCCCN1C
inactive: [11] 0.0668 | [12] -0.0137 | [13] 0.0835 | [14] 0.0561

CCN1CCc2nc(N)oc2CC1
inactive: [1] 0.174 | [2] 0.0369 | [3] 0.132 | [4] 0.152

C[N+](C)(C)CCOC(=O)CCC(=O)OCC[N+](C)(C)C
inactive: [1] 0.129 | [2] 0.073 | [3] 0.227 | [4] 0.0265

C=CCn1c(=O)c2c(nc(-c3ccc(S(=O)(=O)O)cc3)n2C)n(C)c1=O
inactive: [1] 0.0888 | [2] 0.107 | [3] 0.0889 | [4] 0.108

COc1cc2c(CCNC(C)=O)c[nH]c2cc1Cl
inactive: [1] 0.187 | [2] 0.118 | [3] 0.168 | [4] 0.0667

COc1cccc(OC)c1C(=O)N[C@@H]1C(=O)N2[C@@H]1SC(C)(C)[C@@H]2C(=O)O
inactive: [11] 0.111 | [12] -0.0241 | [13] 0.148 | [14] 0.041

C/C1=C\CC/C(C)=C/CC(C)(C)/C=C/C1
inactive: [11] 0.0853 | [12] 0.0875 | [13] 0.112 | [14] 0.0862

Cc1ccc(S(=O)(=O)NC(=O)NN2CCCCCC2)cc1
inactive: [11] 0.0935 | [12] 0.0203 | [1] 0.0136 | [2] 0.0575 | [13] 0.116 | [14] 0.119 | [3] 0.189 | [4] 0.00517

CC(C)(C)CC(C)(C)c1ccc(O)c(Cc2ccc(Cl)cc2Cl)c1
inactive: [11] 0.0591 | [12] 0.145 | [13] 0.142 | [14] 0.315

c1coc(CN2CCN(Cc3ccc4ccccc4c3)CC2)c1
inactive: [11] 0.0477 | [12] 0.0071 | [13] 0.142 | [14] 0.0832

COc1ccc(OC)c(CN2CCN(Cc3cc(OC)c(OC)cc3OC)CC2)c1
active: [11] -0.103
inactive: [12] 0.113 | [13] 0.0261 | [14] -0.0111

C=CC(C)(CCC1C(=C)CC(OC(C)=O)C2C(C)(C)CCCC12C)OC(C)=O (centres undefined)
inactive: [11] 0.025 | [12] 0.066 | [13] 0.163 | [14] -0.0558

CCN(CC)CCOC(=O)C(c1ccccc1)c1ccccc1
inactive: [11] 0.0956 | [12] 0.039 | [13] 0.124 | [14] 0.0934

O=C1C(=O)c2ccccc2C(O)=C1C1CCC(c2ccc(Cl)cc2)CC1 (centres undefined)
inactive: [11] 0.135 | [12] 0.147 | [13] 0.118 | [14] 0.164

CC(=O)O[C@H]1CC[C@@]2(C)C(CC[C@]3(C)C2C(=O)C=C2C4[C@@H](C)[C@H](C)CC[C@]4(C(=O)O)CC[C@]23C)C1(C)C (some centres undefined)
inactive: [11] 0.0834 | [12] -0.0467 | [13] 0.137 | [14] -0.0143

N[C@@H](Cc1ccc(O)c(I)c1)C(=O)O
inactive: [1] 0.00814 | [2] 0.0104 | [3] 0.0218 | [4] 0.0348

CO[C@H]1C[C@H](O[C@H]2[C@H](C)[C@@H](O[C@@H]3O[C@H](C)C[C@H](N(C)C)[C@H]3O)[C@@H](C)C[C@@]3(CO3)C(=O)[C@H](C)[C@@H](O)[C@@H](C)[C@@H](C)OC(=O)[C@@H]2C)O[C@@H](C)[C@@H]1O
inactive: [11] 0.114 | [12] 0.116 | [13] 0.209 | [14] 0.0933

Nc1ccc(S(=O)(=O)Nc2ccccn2)cc1
inactive: [11] 0.0477 | [12] 0.097 | [13] 0.18 | [14] 0.163

CN1[C@@H]2CC[C@H]1CC(OC(c1ccccc1)c1ccccc1)C2 (some centres undefined)
inactive: [1] 0.216 | [2] 0.119 | [3] 0.0438 | [4] 0.118

Nc1ncnc2c1ncn2C1CCCO1 (centres undefined)
active: [1] -0.183 | [2] -0.136 | [3] -0.771 | [4] -0.568

Nc1ccn([C@@H]2O[C@H](CO)[C@@H](O)[C@@H]2O)c(=O)n1
active: [15] -0.206 | [1] -0.179 | [19] -0.377 | [13] -0.85 | [3] -1.17 | [5] -0.966 | [7] -1.5 | [8] -0.184 | [9] -2.24 | [10] -0.544
inactive: [16] -0.0158 | [11] 0.0194 | [12] 0.174 | [2] 0.162 | [17] -0.0966 | [18] 0.00929 | [20] -0.00593 | [14] 0.0115 | [4] -0.0511 | [6] -0.023

O=S(=O)(c1ccc(Br)c2ccccc12)n1ccnc1
inactive: [11] 0.091 | [12] 0.0921 | [13] 0.103 | [14] 0.117

CN(C)CCCN1c2ccccc2Sc2ccc(Cl)cc21
inactive: [15] 0.0728 | [16] 0.128 | [11] 0.1 | [12] 0.155 | [1] 0.141 | [2] 0.1 | [17] 0.122 | [18] 0.0127 | [19] 0.0627 | [20] 0.015 | [13] 0.206 | [14] 0.191 | [3] 0.129 | [4] 0.0664 | [5] -0.0176 | [6] 0.0383 | [7] 0.101 | [8] 0.0471 | [9] -0.0174 | [10] 0.0242
